In all, about 13,000 compounds were measured (“IFI”: median about 4, highest 2% from about 17 on). Some of the results follow.
assay: GSK_TCMDC: Inhibition Frequency Index (IFI). The number of non-kinase HTS assays where a compound showed > 50 % inhibition, expressed as a percentage of the number of such assays in which the compound was tested (-0 is zero); assay type: functional

SMILES | IFI [%]
CCCc1ccc(NC(=O)c2cccc(CN3CCCN(Cc4cccc(C#N)c4)CC3)c2)cc1 | 6.43
CC(C)c1ccc(N(CC(=O)N/N=C/c2ccc(C(F)(F)F)cc2)S(=O)(=O)c2ccc(C(F)(F)F)cc2)cc1 | -0
CNCc1ccc(-c2cccc(CNCc3ccc(-c4ccccc4)cc3)c2)c(C(=O)OC)c1 | 7.94
CC(C)C1C(O)=C(c2ccc3ccccc3c2)C(=O)N1Cc1ccsc1 (configuration not stated) | -0
Cc1cccc2c(CON3C(N)=NC(N)=NC3(C)C)cccc12 | 3.52
N#CN1CC[C@@H](NS(=O)(=O)Cc2ccc(Cl)c(Cl)c2)C1 | 6.67
O=C(Nc1ccc(O)c(-c2nc3ccccc3[nH]2)c1)c1ccc([N+](=O)[O-])cc1 | 0.75
Cc1ccc(CN2CCN(c3cc4c(cc3Cl)CCN4C(=O)Cc3ccc(NC(=O)c4ccc(C(F)(F)F)cc4)cc3)CC2)cc1 | 1.46
COc1ccc2cc(-c3nc(-c4c(Cl)cccc4Cl)[nH]c3-c3ccnc(NCCCN4CCCCC4C)c3)ccc2c1 (configuration not stated) | 7.19
Cn1c(Sc2ncnc3sccc23)nc2ccccc21 | 1.47
O=C(Nc1ccc(F)cc1)NC1CCN(CCCCCNC(=O)C2CC2c2ccc(Cl)c(Cl)c2)CC1 (configuration not stated) | 12.3
Nc1nccc(-c2ccc3c(-c4cccc(F)c4)cnc(N)c3c2)n1 | 2.5
Fc1ccc(-c2cc3ncnc(N4CCN(CCN5CCCC5)CC4)c3s2)cc1 | 1.72
CO/N=C(\C)c1ccc2c(c1)CCN(CCC1CCC(NC(=O)/C=C/c3ccc(F)cc3)CC1)CC2 (configuration not stated) | 9.66
O=C(c1cc2ccccc2o1)N1CCc2cc3nccc(N4CCN5CCC[C@H]5C4)c3cc21 | 4.44
CNCCCNc1ccnc2cc(Cl)ccc12 | -0
COc1cc(C(=O)NCc2nn(CCN3CCC(N4CCCC4)CC3)cc2-c2ccc(Cl)c(Cl)c2)cc(OC)c1OC | 0
COCCNc1nc(N2CCC(CNC(=O)c3ccc(-c4ccc(C(=O)N(C)C)cc4C)cc3)CC2)nc2cc(OC)c(OC)cc12 | 3.64
CC(C)CN(C)Cc1ccc(-c2ccc(-c3nc4ccccc4[nH]3)s2)cc1 | 1.82
Cc1ccc2[nH]c3c(NCCCN(C)C)ncnc3c2c1 | 0
c1ccc2[nH]c(-c3ccc(-c4ccc(CNCCc5ccncc5)cc4)s3)nc2c1 | 8
CCOC(=O)c1c(-c2ccccc2)c(C(=O)OCC)n2ccccc12 | 2.94
CC1(C)NC(N)=NC(=N)N1OCc1nc(N)nc(Nc2ccccc2)n1 | 0.74

SMILES | IFI [%]
CCOC(=O)c1ccc(NC(=O)NC2CCN(CCCCCNC(=O)/C=C/c3ccc(Cl)c(Cl)c3)C2)cc1 (configuration not stated) | 9.16
Cc1cc(-c2ccc(CNCCc3cccs3)cc2)ccc1S(=O)(=O)NCc1ccccc1 | 13.1
COc1ccc(CNC(=N)Nc2nc(-c3ccc(OCCCn4ccnc4)cc3)cs2)cc1 | 4.48
CN1CCCC(CN2CCN(Cc3ccc(-c4ccc(-c5nc6cc(F)ccc6[nH]5)s4)cc3)CC2)C1 (configuration not stated) | 6.94
CCCN1CCN(c2cc(S(=O)(=O)Nc3ccc(C(=O)NCc4cccc(C(F)(F)F)c4)cc3)ccc2OC)CC1 | 24.1
Ic1cc(Nc2ncnc3ccsc23)ccc1OCc1ccccc1 | 0.8
COc1cccc(Nc2nc(C)cc(Nc3cccc(C#N)c3)n2)c1 | 9.09
CN(C)S(=O)(=O)c1cc(-c2ccc3nccc(-c4cccc(S(N)(=O)=O)c4)c3c2)cnc1N | 3.85
COc1ccc(C(=O)N2CCC3(CC2)C(=O)N(CC(=O)NCC2CCCCC2)CN3c2ccccc2)cc1 | 5
CCOC(=O)c1cc(C(=O)NCCCCN2CCC(c3ccc(CC)cc3OCC)CC2)ccc1-c1ccc(C(F)(F)F)cc1 | 10.6
CCc1cc(-c2n[nH]c(C(F)(F)F)c2-c2ccccc2)c(O)cc1OC | 5.63
COc1cc(Nc2nccc(N3CCC(NC(=O)Nc4cc(C)ccc4C)C3)n2)cc(OC)c1OC (configuration not stated) | 0
Cc1noc(C)c1-c1cccc(CNCc2cccc(-c3ccc(-c4nc5cc(C(F)(F)F)ccc5[nH]4)s3)c2)c1 | 3.96
Cc1ccc2cc(NCCCCCCCCON3C(N)=NC(N)=NC34CCCCC4)ccc2n1 | 11.6
Cc1ccc(C(c2nnnn2C2CCCC2)N(Cc2ccco2)Cc2ccccc2Cl)cc1 (configuration not stated) | 2.22
Cc1cc(NC(=O)Nc2ccc3sccc3c2)c2ccccc2n1 | 5.38
O=C(NCC(CCCN1CCC(c2c[nH]c3ccccc23)CC1)c1ccccc1)Nc1ccc(Cl)c(Cl)c1 (configuration not stated) | 9.93
O=C(/C=C/c1ccc([N+](=O)[O-])cc1)N1CCC(NS(=O)(=O)c2cccc(C(F)(F)F)c2)CC1 | 2.21
CN1CCC(N2CCN(Cc3cccc(-c4cccc(-c5nc6ccccc6[nH]5)c4)c3)CC2)CC1 | 5.63
Cc1ccc2nc(C)n(C3CCN(C(=O)C4(c5ccccc5)CC4)CC3)c2c1 | 2.63
O=C(CCCCCCc1ccccc1)Nc1ccc2nc3c(c(NCc4ccccc4)c2c1)CCCC3 | 9.59
O=C(Nc1cccc(Cl)c1)c1cnc(N2CCN(c3ccncc3)CC2)c(Cl)c1 | 16.7
CN1CCc2cc(NS(=O)(=O)c3ccc(-c4ccc(Cl)cc4)cc3)c(OCCCN3CCCCC3)cc2CC1 | 18.6

SMILES | IFI [%]
CN1CCC(c2ccc(NC(=O)c3ccc(-c4cccc(C(F)(F)F)c4)o3)cc2)CC1 | 10.2
Cc1cc(C(=O)Nc2ccc3c(c2)CCN3C2CCN(Cc3ccc(O)cc3)C2)no1 (configuration not stated) | 3.23
CCOc1cc(C)ccc1C1CCN(CCCCNC(=O)c2ccc(-c3ccc(Cl)cn3)cc2)CC1 | 3.73
CN1CCCN(Cc2ccc(-c3cccc(NC(=O)c4ccc(F)cc4)c3)cc2)CC1 | 1.96
COc1cc(CNc2ncc(-c3ccsc3)c(-c3nccs3)n2)cc(OC)c1 | 9.09
N=C(N)c1nc2ccccc2s1 | 0.71
O=c1cc(NCCCNCc2cc3c(Cl)cc(Cl)cc3[nH]2)[nH]c2ccccc12 | 5.52
Cn1cncc1C(=O)NC1CCN(c2ccnc(Nc3ccc(F)cc3)n2)C1 (configuration not stated) | 1.54
CCOc1ccc2c(=NN=Cc3cccc(OC)c3OC)cc(C)[nH]c2c1 | 2.19
CCOC(=O)CCCOc1c(OC)cc(Cc2cnc(N)nc2N)cc1OC | 2.88
O=C(C=Cc1ccc(Cl)c(Cl)c1)NCCCCCN1CCCC(CCCNC(=O)c2ccc3c(c2)OCO3)C1 (configuration not stated) | 4.55
CCCc1cc(Cc2cnc(N)nc2N)cc(CCC)c1OCCCCC(=O)O | 0
O=S(=O)(Nc1ccc(CCN2CCCCC2CCN2CCCC2)cc1)c1cccc2cccnc12 (configuration not stated) | 3.13
CC(C)CN1C(=O)c2ccccc2C(C(=O)Nc2cccc(C#N)c2)C1c1cccs1 (configuration not stated) | 4.44
O=C(Nc1n[nH]c2nc(-c3ccco3)c(Br)cc12)c1ccc(CN2CCCC2)cc1 | 7.25
COc1cc2nc(NCC3CCCCC3)nc(NCc3ccccc3)c2cc1OC | 6.52
COc1ccc(CNCc2cccc(-c3cccc(-c4nc5cc(F)ccc5[nH]4)c3)c2)cc1 | 11.4
N=C(Nc1nc(-c2ccccn2)cc2ccccc12)c1cccc(Cl)c1 | 8.78
CC(CN1CCN(C)CC1)C(=O)Nc1cccc(-c2ccc(-c3nc4cc(F)ccc4[nH]3)cc2)c1 (configuration not stated) | 6.42
O=C(Nc1cc(Cl)c(Cl)cc1NC(=O)c1cccc(-c2ccccc2)c1O)c1cccc(-c2ccccc2)c1O | 13.9
CC(CN1CCN(C)CC1)C(=O)Nc1ccc(-c2cccc(-c3nc4ccccc4[nH]3)c2)cc1 (configuration not stated) | 4.59
CCN(CC)c1cc(C)c2cc(NC(=O)c3cc(=O)c4ccccc4o3)ccc2n1 | 3.47
Cc1nc2c(Nc3nc(-c4ccncc4)cs3)ncnc2n1-c1ccccc1Cl | 2.29

SMILES | IFI [%]
CCN(CC)CCN(Cc1ccc(-c2ccc(C(F)(F)F)cc2)nc1)C(=O)Cn1cc(Cc2cnn(C)c2)c(=O)n2nc(-c3ccccc3)cc12 | 7.8
C[C@@H](NC(=O)NC(CCN1CCC2(CC1)CN(S(C)(=O)=O)c1ccccc12)c1ccc(Cl)c(Cl)c1)c1ccccc1 (some centres not stated) | 4.14
O=C(NCc1cccc2ccccc12)c1ccc(CNC2CCN(Cc3ccccc3)CC2)cc1 | 5.88
Fc1ccc2[nH]c(-c3cccc(-c4cccc(CNCC5CCCO5)c4)c3)nc2c1 (configuration not stated) | 4
O=C(O)CCSc1ncnc2[nH]cnc12 | 2.92
O=C(Nc1nccs1)c1cc(-c2cccnc2)nc2ccc(Br)cc12 | 0
COc1ccc2c(NN=Cc3ccccc3F)ccnc2c1 | 3.52
OCCN1CCN(C(=S)Nc2ccccc2)CC1 | 0
COc1ccc(C=C2SC(=N)N(c3ccccc3OC)C2=O)cc1 | 8.18
Cn1cncc1C(=O)Nc1cccc(-c2ccc(-c3nc4ccccc4[nH]3)cc2)c1 | 0.89
Cc1c(CNCCCNc2nc3ccccc3[nH]2)sc(C(F)F)c1Br | 3.6
Nc1ccnc2ccc(OCCCCCCc3ccccc3)cc12 | 15.5
CN(C)CCN(Cc1ccccc1-c1ccc(CNCCc2ccccc2)cc1)C(=O)c1ccccc1 | 9.15
CCC(c1ccccc1)c1nn2c(-c3cccs3)nnc2s1 (configuration not stated) | 9.76
CC1(CCc2ccccc2)N=C(N)N=C(N)C1c1ccc(Cl)c(Cl)c1 (configuration not stated) | 2.94
O=C(NCc1ccc(Cl)c(Cl)c1)c1cc(CNC2CCNCC2)ccc1O | 0.72
Cc1[nH]c(C)c(-c2ccc(-c3ccc(Cl)cc3)nc2)c(=O)c1Br | 1.83
CCCCNC(=O)C1CCCN(C(=O)c2ccc(O)c(-c3ccc(Cl)c(Cl)c3)c2)C1 (configuration not stated) | 1.47
N=C(N)c1cccc(OCCCOc2cccc(NC(=O)Nc3ccc([N+](=O)[O-])cc3)c2)c1 | 4.29
O=C(NCc1cc2c(cc1Cl)OCO2)c1ccc(CNC2CCN(Cc3ccccc3)CC2)cc1 | 2.22
OCCN1CCN(Cc2ccc(-c3ccc(-c4nc5cc(C(F)(F)F)ccc5[nH]4)s3)cc2)CC1 | 9.71
O=S(=O)(/C=C/c1ccccc1)N(Cc1ccc(-c2ccc(CNCCc3ccccn3)cc2)cc1)CC1CCCCN1 (configuration not stated) | 7.89
CN1CCC(NCc2ccc(-c3ccc(S(=O)(=O)NCc4ccccc4)cc3)cc2)CC1 | 6.86
